This passage reports yeast fitness gain results from the supplement of paper PMC11741623.

This is one part of the list. Interaction screen of human proteins with wild-type SARS-CoV-2 proteins by split-DHFR complementation in yeast, 1 µg/mL methotrexate. Value = fitness of the pair (three or more lineages) minus that of the viral protein without a human partner, on a scale set by negative (0) and fused positive (1) controls, mean of up to three cultures; higher = more likely to interact. Active = false discovery rate below 0.05 (one-sided t-test) in at least one culture. Nearly all pairs are not hits, and differences among them are mostly noise (correlation between cultures about 0.3); most hits were seen in one culture only. Human sequences are the Swiss-Prot entries looked up by gene name; the clone may be another isoform. NSP2 values were corrected by the authors for a growth advantage. Listed are human proteins with a hit and a random twelfth of the others.

The chains are these.
B1: MUC20, Q8N307 (protein)
chain: MGCLWGLALPLFFFCWEVGVSGSSAGPSTRRADTAMTTDDTEVPAMTLAPGHAALETQTLSAETSSRASTPAGPIPEAETRGAKRISPARETRSFTKTSPNFMVLIATSVETSAASGSPEGAGMTTVQTITGSDPREAIFDTLCTDDSSEEAKTLTMDILTLAHTSTEAKGLSSESSASSDSPHPVITPSRASESSASSDGPHPVITPSRASESSASSDGPHPVITPSRASESSASSDGPHPVITPSRASESSASSDGPHPVITPSRASESSASSDGPHPVITPSRASESSASSDGPHPVITPSRASESSASSDGPHPVITPSRASESSASSDGPHPVITPSRASESSASSDGLHPVITPSRASESSASSDGPHPVITPSRASESSASSDGPHPVITPSWSPGSDVTLLAEALVTVTNIEVINCSITEIETTTSSIPGASDTDLIPTEGVKASSTSDPPALPDSTEAKPHITEVTASAETLSTAGTTESAAPDATVGTPLPTNSATEREVTAPGATTLSGALVTVSRNPLEETSALSVETPSYVKVSGAAPVSIEAGSAVGKTTSFAGSSASSYSPSEAALKNFTPSETPTMDIATKGPFPTSRDPLPSVPPTTTNSSRGTNSTLAKITTSAKTTMKPPTATPTTARTRPTTDVSAGENGGFLLLRLSVASPEDLTDPRVAERLMQQLHRELHAHAPHFQVSLLRVRRG
B2: INTU, Q9ULD6 (protein)
chain: MASVASCDSRPSSDELPGDPSSQEEDEDYDFEDRVSDSGSYSSASSDYDDLEPEWLDSVQKNGELFYLELSEDEEESLLPETPTVNHVRFSENEIIIEDDYKERKKYEPKLKQFTKILRRKRLLPKRCNKKNSNDNGPVSILKHQSNQKTGVIVQQRYKDVNVYVNPKKLTVIKAKEQLKLLEVLVGIIHQTKWSWRRTGKQGDGERLVVHGLLPGGSAMKSGQVLIGDVLVAVNDVDVTTENIERVLSCIPGPMQVKLTFENAYDVKRETSHPRQKKTQSNTSDLVKLLWGEEVEGIQQSGLNTPHIIMYLTLQLDSETSKEEQEILYHYPMSEASQKLKSVRGIFLTLCDMLENVTGTQVTSSSLLLNGKQIHVAYWKESDKLLLIGLPAEEVPLPRLRNMIENVIQTLKFMYGSLDSAFCQIENVPRLDHFFNLFFQRALQPAKLHSSASPSAQQYDASSAVLLDNLPGVRWLTLPLEIKMELDMALSDLEAADFAELSEDYYDMRRLYTILGSSLFYKGYLICSHLPKDDLIDIAVYCRHYCLLPLAAKQRIGQLIIWREVFPQHHLRPLADSSTEVFPEPEGRYFLLVVGLKHYMLCVLLEAGGCASKAIGSPGPDCVYVDQVKTTLHQLDGVDSRIDERLASSPVPCLSCADWFLTGSREKTDSLTTSPILSRLQGTSKVATSPTCRRTLFGDYSLKTRKPSPSCSSGGSDNGCEGGEDDGFSPHTTPDAVRKQRESQGSDGLEESGTLLKVTKKKSTLPNPFHLGNLKKDLPEKELEIYNTVKLTSGPENTLFHYVALETVQGIFITPTLEEVAQLSGSIHPQLIKNFHQCCLSIRAVFQQTLVEEKKKGLNSGDHSDSAKSVSSLNPVKEHGVLFECSPGNWTDQKKAPPVMAYWVVGRLFLHPKPQELYVCFHDSVTEIAIEIAFKLFFGLTL
B3: SATB2, Q9UPW6 (protein)
chain: MERRSESPCLRDSPDRRSGSPDVKGPPPVKVARLEQNGSPMGARGRPNGAVAKAVGGLMIPVFCVVEQLDGSLEYDNREEHAEFVLVRKDVLFSQLVETALLALGYSHSSAAQAQGIIKLGRWNPLPLSYVTDAPDATVADMLQDVYHVVTLKIQLQSCSKLEDLPAEQWNHATVRNALKELLKEMNQSTLAKECPLSQSMISSIVNSTYYANVSATKCQEFGRWYKKYKKIKVERVERENLSDYCVLGQRPMHLPNMNQLASLGKTNEQSPHSQIHHSTPIRNQVPALQPIMSPGLLSPQLSPQLVRQQIAMAHLINQQIAVSRLLAHQHPQAINQQFLNHPPIPRAVKPEPTNSSVEVSPDIYQQVRDELKRASVSQAVFARVAFNRTQGLLSEILRKEEDPRTASQSLLVNLRAMQNFLNLPEVERDRIYQDERERSMNPNVSMVSSASSSPSSSRTPQAKTSTPTTDLPIKVDGANINITAAIYDEIQQEMKRAKVSQALFAKVAANKSQGWLCELLRWKENPSPENRTLWENLCTIRRFLNLPQHERDVIYEEESRHHHSERMQHVVQLPPEPVQVLHRQQSQPAKESSPPREEAPPPPPPTEDSCAKKPRSRTKISLEALGILQSFIHDVGLYPDQEAIHTLSAQLDLPKHTIIKFFQNQRYHVKHHGKLKEHLGSAVDVAEYKDEELLTESEENDSEEGSEEMYKVEAEEENADKSKAAPAEIDQR
B4: RND2, P52198 (protein)
chain: MEGQSGRCKIVVVGDAECGKTALLQVFAKDAYPGSYVPTVFENYTASFEIDKRRIELNMWDTSGSSYYDNVRPLAYPDSDAVLICFDISRPETLDSVLKKWQGETQEFCPNAKVVLVGCKLDMRTDLATLRELSKQRLIPVTHEQGTVLAKQVGAVSYVECSSRSSERSVRDVFHVATVASLGRGHRQLRRTDSRRGMQRSAQLSGRPDRGNEGEIHKDRAKSCNLM
B5: SAT2, Q96F10 (protein)
chain: MASVRIREAKEGDCGDILRLIRELAEFEKLSDQVKISEEALRADGFGDNPFYHCLVAEILPAPGKLLGPCVVGYGIYYFIYSTWKGRTIYLEDIYVMPEYRGQGIGSKIIKKVAEVALDKGCSQFRLAVLDWNQRAMDLYKALGAQDLTEAEGWHFFCFQGEATRKLAGK

One experiment addresses SARS-CoV-2 M. Description: yeast fitness gain over the viral ORF with no human partner (scaled fitness); higher = more likely to interact. The method, then: (§1)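 Split mouse DHFR complementation in pooled diploid yeast: human ORFeome clones carry one fragment and viral ORFs the other; barcoded lineages compete in 1 µg/mL methotrexate and fitness is read by barcode sequencing in up to three cultures.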
On to B1, for which the yeast fitness gain is inactive: -0.0653.
For B2, the yeast fitness gain is inactive: -0.134.
Consider B3, for which the yeast fitness gain was inactive: 0.151.
The same measure, in the same setting: for B4 the value was inactive: 0.0645.
On the same count and under the same terms, with B5 the figure was inactive: -0.142.

The target in another experiment is SARS-CoV-2 NSP1. Described as above. As for the experimental part: as §1
Regarding B1, the yeast fitness gain is inactive: 0.00207.
As to B3, the yeast fitness gain was inactive: -0.00807.
As for B4, the yeast fitness gain was inactive: -0.0255.

In a further experiment the target is SARS-CoV-2 NSP10. The description is as above. The method, then:
as §1
Regarding B1, the yeast fitness gain was inactive: 0.00439.
The same measure, in the same setting: with B2 the figure was inactive: 0.0554; with B4, inactive: -0.124.

The target of the next experiment is SARS-CoV-2 NSP12. The experiment is described as above. The method, then:
as §1
B1: the yeast fitness gain is inactive: -0.0749.
On the same count and under the same terms, for B2 the value was inactive: 0.109; for B3, inactive: -0.0451.
With B4, the yeast fitness gain was inactive: -0.0472.

In another experiment the target is SARS-CoV-2 NSP13. Described as above. The method, then:
as §1
Regarding B1, the yeast fitness gain is inactive: -0.0186.
On the same count and under the same terms, for B2 the value was inactive: -0.0886; for B3, inactive: 0.00268; for B4, inactive: -0.187.

A further experiment deals with SARS-CoV-2 NSP2. The experiment is described as above. As for the experimental part:
as §1
Take B1: the yeast fitness gain is inactive: -0.0468.
B2: the yeast fitness gain was inactive: -0.117.
Same read-out and setting: for B3 the value was inactive: -0.16.
Consider B4, for which the yeast fitness gain was inactive: -0.0301.

Another experiment addresses SARS-CoV-2 NSP5. The experiment is described as above. As for the experimental part:
as §1
On to B1, for which the yeast fitness gain is inactive: 0.0518.
On the same count and under the same terms, for B2 the value was inactive: -8.1e-05; for B3, inactive: -0.00105; for B4, inactive: 0.0819.

The next experiment concerns the target SARS-CoV-2 NSP6. Described as above. The method, then: as §1
As to B1, the yeast fitness gain was inactive: 0.0568.
On the same count and under the same terms, for B2 the value was inactive: -0.00921.

In the next experiment the target is SARS-CoV-2 NSP8. The description is as above. The method, then: as §1
In the case of B1, the yeast fitness gain was inactive: -0.0869.

The target of the next experiment is SARS-CoV-2 NSP9. The description is as above. The method, then:
as §1
B1: the yeast fitness gain was inactive: -0.0809.
The same measure, in the same setting: for B4 the value was inactive: -0.064.

A further experiment deals with SARS-CoV-2 ORF3B. Described as above. As for the experimental part: as §1
Regarding B1, the yeast fitness gain is inactive: -0.0612.
For B2, the yeast fitness gain is inactive: -0.0179.
Still for that read-out and setting: for B4 the value was inactive: -0.065.

The target in the next experiment is SARS-CoV-2 ORF6. The experiment is described as above. As for the experimental part:
as §1
For the molecule B1, the yeast fitness gain is inactive: -0.076.
In the case of B2, the yeast fitness gain is inactive: -0.0634.
Turning to B3, the yeast fitness gain is inactive: 0.0697.
B4: the yeast fitness gain is inactive: -0.0117.
On the same count and under the same terms, with B5 the figure was inactive: 0.126.

A further experiment concerns the target SARS-CoV-2 ORF7B. The description is as above. The method, then: as §1
Consider B1, for which the yeast fitness gain is inactive: -0.0954.
Same read-out and setting: for B2 the value was inactive: -0.0596.
On the same count and under the same terms, for B4 the value was inactive: -0.217.

The target in another experiment is SARS-CoV-2 ORF8. The experiment is described as above. As for the experimental part: as §1
With B1, the yeast fitness gain was inactive: 0.0732.
With B2, the yeast fitness gain was inactive: -0.0986.
Same read-out and setting: with B4 the figure was inactive: 0.0528.

Another experiment concerns the target SARS-CoV-2 ORF9B. The description is as above. As for the experimental part:
as §1
In the case of B1, the yeast fitness gain was inactive: -0.041.
With B2, the yeast fitness gain was inactive: -0.0577.
Same read-out and setting: with B4 the figure was inactive: -0.0573.

In a further experiment the target is SARS-CoV-2 S. The experiment is described as above. As for the experimental part: as §1
For B1, the yeast fitness gain was inactive: -0.337.
Still for that read-out and setting: with B2 the figure was inactive: 0.232.
On the same count and under the same terms, with B3 the figure was inactive: 0.086; with B4, inactive: -0.0592.

Another experiment concerns the target SARS-CoV-2 NSP15. The experiment is described as above. As for the experimental part:
as §1
B2: the yeast fitness gain was inactive: -0.00152.

The next experiment has as its target SARS-CoV-2 ORF10. The experiment is described as above. The method, then: as §1
As to B2, the yeast fitness gain was inactive: -0.132.
Still for that read-out and setting: with B4 the figure was inactive: -0.063.

In the next experiment the target is SARS-CoV-2 ORF7A. Described as above. As for the experimental part: as §1
As for B2, the yeast fitness gain is inactive: 0.146.
Turning to B4, the yeast fitness gain is inactive: -0.0465.

Another experiment addresses SARS-CoV-2 ORF9Bwu (the 73-codon ORF). The experiment is described as above. The method, then: as §1
For B2, the yeast fitness gain is inactive: 0.088.
Regarding B4, the yeast fitness gain is inactive: -0.0233.

Another experiment concerns the target SARS-CoV-2 NSP7. The description is as above. The method, then: as §1
Turning to B3, the yeast fitness gain was inactive: 0.0149.
For the molecule B4, the yeast fitness gain was inactive: 0.044.
